# Hit rate of the full screen: of about 45,000 compounds, about 200 (0.44%) were called active. About 7% were inconclusive and are not listed. Calls follow the shape of the dose curve; as a rule, active = well fitted activation curve with a large enough effect; inconclusive = small, poorly fitted or top-dose-only effect; inactive = no such curve, though single readings can be large or run the other way. Some of the results follow.
# Assay: qHTS of TDP-43 Inhibitors: NCGC Sytravon Library Screen; also: 0% is about no effect; nearly all actives have a fitted effect of over 55% in size
# Details: yeast TDP-43 toxicity rescue, BacTiter-Glo growth, 24 h; series mostly up to 46.1 µM; growth rescue (activation): at the top concentration
# Outline: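 TDP-43-expressing yeast, pregrown in raffinose, seeded at OD600 0.02 in galactose medium with compound for 24 hr at 30 deg C. Growth read by BacTiter-Glo luminescence, so rescue of toxicity appears as activation.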
row,Compound,growth rescue (activation)
1,CSc1ccc(CNCC2CCCO2)cc1 (stereo not given),inactive: -4.1%
2,CS(=O)(=O)c1ccc(N2CCN(c3ccccn3)CC2)c([N+](=O)[O-])c1,inactive: 3.54%
3,CCC(C)Nc1nc(N)c([N+](=O)[O-])c(NC2CCCCC2)n1 (stereo not given),inactive: 6.95%
4,CCOC(=O)C1(Cc2ccccc2C)CCCN(Cc2ccc(NC(C)=O)cc2)C1 (stereo not given),inactive: 8.32%
5,CC[N+]1(CC(O)COC2CC(C)CC(C)(C)C2)CCOCC1 (stereo not given),inactive: -14.7%
6,O=C(Cc1cccc2ccccc12)Nc1ccc(-c2cc3ccccc3oc2=O)cc1,inactive: 9.93%
7,O=c1cc(/N=C/c2coc3cc(Br)ccc3c2=O)[nH]c(=S)[nH]1,inactive: 0.366%
8,COc1ccccc1CNC(=O)CCc1nc2ccccc2c(=O)[nH]1,inactive: 0.194%
9,COc1ccccc1C(C)NCC(=O)NCC(=O)Nc1ccc(F)c(F)c1F (stereo not given),inactive: 3.47%
10,Cc1ccccc1OCCNC(=O)CSc1ccc(C(F)(F)F)cc1[N+](=O)[O-],inactive: 1.03%
11,O=C(COc1cccnc1[N+](=O)[O-])Nc1ccc2c(c1)OCO2,inactive: 5.58%
12,Cc1ccc(C(=O)N(CC(=O)Nc2ccc(Cl)c(Cl)c2)Cc2ccco2)cc1,inactive: 9.91%
13,CCn1c(C)nc2cc(S(=O)(=O)Nc3ccc(C)cc3)ccc21,inactive: 1.78%
14,CCC(C)NCCOCCOc1ccc(Br)cc1 (stereo not given),inactive: -4.53%
15,CCCC1(CCC)NC(=O)N(CC(=O)Nc2ccc(Cl)c(S(=O)(=O)N3CCOCC3)c2)C1=O,inactive: 3.09%
16,CC1CCCC(NC(=O)C2CCC(CNc3c(N4CCCCC4)c(=O)c3=O)CC2)C1C (stereo not given),inactive: -5.16%
17,O=C1[C@@H]2[C@@H]3C[C@@H]([C@H]4ON=C(c5ccc(Cl)cc5Cl)[C@@H]34)[C@@H]2C(=O)N1C1CCCCC1,inactive: 25.5%
18,CS(=O)(=O)N1CCC(Oc2ccccc2C(=O)NCCCc2cccnc2)CC1,inactive: 12.1%
19,COc1ccc(CNC(=O)c2ccc(N3CCOCC3)c([N+](=O)[O-])c2)cc1,inactive: 1.22%
20,COc1ccc(C(CC(=O)Nc2ccccn2)N2Cc3ccccc3C2=O)cc1 (stereo not given),inactive: 4.05%
21,CN1CCN(C(=O)/C(=C/c2cccs2)NC(=O)c2ccco2)CC1,inactive: -21.9%
22,O=C(c1cccc(Cl)c1)C1CCCN(Cc2ccc(N3CCNC3=O)cc2)C1 (stereo not given),inactive: 4.33%
23,O=[N+]([O-])c1ccccc1/C=N/n1c(-c2ccccc2)n[nH]c1=S,inactive: -7.79%

row,Compound,growth rescue (activation)
1,Cc1cccc(C(=O)NCCCNC(=O)c2cccnc2)c1,inactive: -4.08%
2,COCC1CCN(Cc2cn(Cc3ccccc3)nc2-c2cc3ccccc3o2)CC1,inactive: 9.88%
3,O=C(NCCCn1ccnc1)c1cc(Cl)cc(Cl)c1,inactive: -3.99%
4,CC(=O)Nc1cccc(-c2ccnc3c2CC(C(=O)NCCC(F)(F)F)O3)c1 (stereo not given),inactive: 9.36%
5,COc1ccc(-c2cc(C(=O)Nc3cc(C)on3)no2)cc1,inactive: 3.2%
6,CCC1Oc2ccc(C)cc2N(CC(=O)NCCCN2CCCC2)C1=O (stereo not given),inactive: 7.19%
7,CCOC(=O)C1(Cc2ccccc2C(F)(F)F)CCN(CC2CC2)CC1,inactive: 7.42%
8,O=S1(=O)N=C2CCCCCN2C(c2ccc(Br)cc2)N1 (stereo not given),inactive: 4.21%
9,COc1ccc(C2=NOC(C(=O)Nc3ccc4c(c3)OCO4)C2)cc1OC (stereo not given),inactive: 10.7%
10,Cc1ccc2cc(C=O)c(Cl)nc2c1,inactive: -10.5%
11,CC(C)C(OC(=O)c1ccco1)C(=O)NC1CCCCC1 (stereo not given),inactive: -13.1%
12,COc1ccc(-c2nnc3n2CCCCC3)cc1,inactive: 6.62%
13,O=C(CSc1nn(-c2ccccc2)c(=S)s1)NC1CCS(=O)(=O)C1 (stereo not given),inactive: 15.6%
14,CCS(=O)(=O)N1CCC(C(=O)O)CC1,inactive: 12.1%
15,Cc1ccc(S(=O)(=O)N2CCN(c3ncccn3)CC2)cc1C,inactive: -2.79%
16,CCc1nc2c(OCCC3CCCCC3)cccn2c1N(C)C(=O)c1ccc(OC)cc1,inactive: -8.17%
17,COc1ccc(-c2cc3nc(CCl)[nH]c(=O)c3s2)cc1,inactive: -4.64%
18,O=C(NC1CCCCC1)c1cccnc1Sc1ccccc1,inactive: 5.03%
19,C=CCc1c(C)nc2c(-c3ccccc3)cnn2c1N1CCOCC1,inactive: 19.8%
20,CC(C)(C)NC(=O)C(c1ccccn1)N(C(=O)c1csnn1)C1CCCC1 (stereo not given),inactive: 0.684%
21,CCc1nnc(NC(=O)C2CC(=O)N(c3ccc4c(c3)OCCO4)C2)s1 (stereo not given),inactive: -12%
22,Cc1ccc(S(=O)(=O)N2CCC[C@H]2C(=O)OCc2cc(=O)oc3cc(C)ccc23)cc1,inactive: 20.7%
23,O=C(COC(=O)c1ccc(-c2ccccc2)cc1)Nc1ccccc1-c1ccccc1,inactive: 11%

row,Compound,growth rescue (activation)
1,Fc1ccccc1NC(=S)Nc1ccc(CN2CCOCC2)cc1,inactive: -22.2%
2,NS(=O)(=O)c1ccc(N2CCN(CCOc3ccc(Cl)cc3)CC2)nc1,inactive: 7.6%
3,CCN(CC)S(=O)(=O)c1cccc(C(=O)N2CCCCC2)c1,inactive: -5.17%
4,Clc1ccc(-c2ncc3ccccn23)cc1,inactive: -0.0364%
5,Cc1ccccc1N(C(=O)CNC(=O)c1ccco1)C(C(=O)NC1CCCCC1)c1ccncc1 (stereo not given),inactive: -2.6%
6,O=C(c1cc(S(=O)(=O)N2CCOCC2)ccc1Cl)N1CCN(c2ccccn2)CC1,inactive: 10.7%
7,Cc1cc([N+](=O)[O-])ccc1-c1ccc(/C=N/NC(=O)Cc2ccccc2)o1,inactive: 13.4%
8,CC1CCN(c2ccc(N3C(=O)C4CCCCC4C3=O)cc2[N+](=O)[O-])CC1 (stereo not given),inactive: 12%
9,Cc1ccc(S(=O)(=O)N(C)C)cc1NC(=O)CN1CCCC1,inactive: 2.73%
10,CN(Cc1ccccc1)S(=O)(=O)c1ccc(Cl)c(C(=O)O)c1,inactive: -7.67%
11,COCCNC(=O)CSC1=N/C(=C/c2ccc(Cl)c(Cl)c2)C(=O)N1c1ccccc1F,inactive: 1.64%
12,CC(C)CN(C(=O)c1nn(C)c(=O)c2ccccc12)c1nc2ccccc2s1,inactive: -10.7%
13,CC(=O)N1CCC(=O)N(C(C)C)c2ccccc21,inactive: 5.41%
14,CC(=O)Nc1ccc(N(C(=O)c2ccccn2)C(C(=O)NC2CCCCC2)c2ccc(F)cc2)cc1 (stereo not given),inactive: -12.3%
15,COc1ccc2c(c1)C=C(CN1CCC(CO)(CCc3ccccc3)CC1)CO2,inactive: -3.69%
16,CCOC(=O)N1CCN(CC(=O)Nc2ccc(F)cc2)CC1,inactive: 4.07%
17,C/C(Cc1ccccc1)=N\NC(=O)CNC(=O)c1ccc(Cl)cc1,inactive: 10.5%
18,CC(C)c1nnc(NC(=O)c2cc3ccccc3o2)s1,inactive: -3.41%
19,COCC(=O)N(Cc1cc2cc(C)ccc2[nH]c1=O)c1cccc(C)c1C,inactive: -7.85%
20,Cc1nc(SCC2(C)CC2(Cl)Cl)n[nH]1 (stereo not given),inactive: -4.18%
21,COc1ccc(C2CC(=O)OC3=C2C(=O)CC(C)(C)C3)c(OC)c1 (stereo not given),inactive: -0.559%
22,CC(C)Oc1ccc(CCN=C(N)N=C(N)N)cc1Cl,inactive: 3.98%
23,CC(=O)Nc1c(Nc2ccccc2)c2ccccc2oc1=O,inactive: -11.6%

row,Compound,growth rescue (activation)
1,Cc1ccc(CNC(=O)CN(C(=O)C2(C)CC(=O)N=C3C=CC=CN32)c2cc(C)ccc2C)cc1 (stereo not given),inactive: 18.3%
2,O=S(=O)(NC1CC1)c1ccc(Cl)cc1F,inactive: 19.2%
3,NC(N)=Nc1nc(-c2ccccc2)c2ccccc2n1,inactive: -7.94%
4,CN(Cc1ccc(F)cc1)C(=O)CN1C(=O)c2ccccc2S1(=O)=O,inactive: 17.1%
5,COc1ccc(-n2nc(C(=O)NCC(=O)N3CCC(C(N)=O)CC3)c3ccccc3c2=O)cc1OC,inactive: 6.87%
6,Cc1ccccc1-c1cc2nc(-c3ccc([N+](=O)[O-])cc3)cc(=O)n2[nH]1,inactive: 1.03%
7,CCOC(=O)C1C(c2ccccc2)C(C(=O)OCC)S(=O)(=O)C(CCN(CC)CC)S1(=O)=O (stereo not given),inactive: -10.7%
8,COc1cccc(C(=O)OCC(=O)Nc2ccc3c(c2)OCCO3)c1,inactive: 4.43%
9,CNS(=O)(=O)c1cccc(C(=O)OCC(=O)Nc2ccc3ccccc3c2)c1,inactive: 3.18%
10,CCNC(=S)NNC(=O)c1ccc(OC)cc1,inactive: 2.49%
11,CN(C(=O)CSc1ncnc2sc3c(c12)CCCC3)C1CCS(=O)(=O)C1 (stereo not given),inactive: 19.5%
12,CN(c1cccc(NS(=O)(=O)c2cccc([N+](=O)[O-])c2)c1)S(C)(=O)=O,inactive: -4.69%
13,CC(C)c1ccc(C(=O)Nc2ccc(CN3CCOCC3)cc2)cc1,inactive: -13.4%
14,O=C(COc1ccc([N+](=O)[O-])cc1)NCCc1nc2ccccc2[nH]1,inactive: 4.76%
15,CC(Sc1nnnn1C)C(=O)NC1CCCC1 (stereo not given),inactive: 11.6%
16,Cc1cc(NC(=O)CSc2nc3c(C)ccc(C)c3cc2C#N)no1,inactive: 4.04%
17,Cc1ccc(NC(=O)CSc2n[nH]c(-c3ccncc3)n2)c(C)c1,inactive: -18.7%
18,Cc1ccsc1C(=O)Nc1cccc(S(=O)(=O)N(C)C)c1,inactive: 5.85%
19,Cc1ccc(C(=O)Nc2ccccc2C(=O)N2CCCCCC2)cc1,inactive: 19.4%
20,CCCCN1C(=O)c2ccc(C(=O)NCCN3C(=O)S/C(=C\c4cccnc4)C3=O)cc2C1=O,inactive: -2.16%
21,COc1ccc(-n2c(O)c(C=Nc3ccccc3)c3ccccc3c2=O)cc1,inactive: -6.2%

# Reference: PubChem BioAssay AID1347073 (National Center for Advancing Translational Sciences (NCATS), 2019)
